Test results as given in EPA's CvTdb concentration-time database.
“And” between values parts separate entries of the source, which are not always exact repeats. Equal entries are not always repeated. The source gives many values for each of these; only a part stands here.

Experiments:
[1] = test system: Rat; experiment: concentration in liver after dosing; settings: 16 h; dosed: 3,3',4,4',5-pentachlorobiphenyl; 1000 mg/kg; oral; Female; F344
[2] = test system: Rat; experiment: concentration in plasma after dosing; settings: 7416 h; dosed: 3,3',4,4',5-pentachlorobiphenyl; 1000 mg/kg; oral; Female; F344
[3] = test system: Rat; experiment: concentration in liver after dosing; settings: 5088 h; dosed: 3,3',4,4',5-pentachlorobiphenyl; 1000 mg/kg; oral; Female; F344
[4] = test system: Rat; experiment: concentration in liver after dosing; settings: 6744 h; dosed: 3,3',4,4',5-pentachlorobiphenyl; 1000 mg/kg; oral; Female; Harlan Sprague Dawley
[5] = test system: Rat; experiment: concentration in liver after dosing; settings: 1.5 h; dosed: 3,3',4,4',5-pentachlorobiphenyl; 1000 mg/kg; oral; Female; F344
[6] = test system: Rat; experiment: concentration in liver after dosing; settings: 2 h; dosed: 3,3',4,4',5-pentachlorobiphenyl; 1000 mg/kg; oral; Female; F344
[7] = test system: Rat; experiment: concentration in liver after dosing; settings: 288 h; dosed: 3,3',4,4',5-pentachlorobiphenyl; 1000 mg/kg; oral; Female; Harlan Sprague Dawley
[8] = test system: Rat; experiment: concentration in liver after dosing; settings: 2880 h; dosed: 3,3',4,4',5-pentachlorobiphenyl; 1000 mg/kg; oral; Female; Harlan Sprague Dawley
[9] = test system: Rat; experiment: concentration in liver after dosing; settings: 8184 h; dosed: 3,3',4,4',5-pentachlorobiphenyl; 1000 mg/kg; oral; Male; Harlan Sprague Dawley
[10] = test system: Rat; experiment: concentration in liver after dosing; settings: 6000 h; dosed: 3,3',4,4',5-pentachlorobiphenyl; 1000 mg/kg; oral; Female; F344
[11] = test system: Rat; experiment: concentration in liver after dosing; settings: 2 h; dosed: 3,3',4,4',5-pentachlorobiphenyl; 1000 mg/kg; oral; Female; F344; remark: listed apart in the source
[12] = test system: Rat; experiment: concentration in liver after dosing; settings: 6000 h; dosed: 3,3',4,4',5-pentachlorobiphenyl; 1000 mg/kg; oral; Female; Harlan Sprague Dawley
[13] = test system: Rat; experiment: concentration in plasma after dosing; settings: 2 h; dosed: 76231-76-0; 3.0 mg/kg; iv; Female; F344
[14] = test system: Rat; experiment: concentration in brain after dosing; settings: 3 h; dosed: alpha/beta-Thujone mixture; 50 mg/kg; oral; Female; F344
[15] = test system: Rat; experiment: concentration in brain after dosing; settings: 3 h; dosed: alpha/beta-Thujone mixture; 50 mg/kg; oral; Male; F344
[16] = test system: Rat; experiment: concentration in plasma after dosing; settings: 1.5 h; dosed: alpha/beta-Thujone mixture; 50 mg/kg; oral; Male; F344
[17] = test system: Rat; experiment: concentration in plasma after dosing; settings: 0.5 h; dosed: alpha/beta-Thujone mixture; 25 mg/kg; oral; Male; F344
[18] = test system: Rat; experiment: concentration in brain after dosing; settings: 3 h; dosed: alpha/beta-Thujone mixture; 25 mg/kg; oral; Male; F344
[19] = test system: Rat; experiment: concentration in plasma after dosing; settings: 5 min; dosed: alpha/beta-Thujone mixture; 50 mg/kg; oral; Male; F344
[20] = test system: Rat; experiment: concentration in plasma after dosing; settings: 3 h; dosed: alpha/beta-Thujone mixture; 25 mg/kg; oral; Female; F344
[21] = test system: Rat; experiment: concentration in brain after dosing; settings: 5 min; dosed: alpha/beta-Thujone mixture; 25 mg/kg; oral; Male; F344
[22] = test system: Rat; experiment: concentration in brain after dosing; settings: 3 h; dosed: alpha/beta-Thujone mixture; 25 mg/kg; oral; Male; F344; remark: listed apart in the source
[23] = test system: Rat; experiment: concentration in plasma after dosing; settings: 5 min; dosed: alpha/beta-Thujone mixture; 25 mg/kg; oral; Female; F344
[24] = test system: Rat; experiment: concentration in plasma after dosing; settings: 12 h; dosed: alpha/beta-Thujone mixture; 50 mg/kg; oral; Female; F344
[25] = test system: Rat; experiment: concentration in brain after dosing; settings: 5 min; dosed: alpha/beta-Thujone mixture; 50 mg/kg; oral; Male; F344
[26] = test system: Rat; experiment: concentration in plasma after dosing; settings: 5 min; dosed: 76231-76-0; 3.0 mg/kg; iv; Male; F344
[27] = test system: Rat; experiment: concentration in plasma after dosing; settings: 5 min; dosed: 76231-76-0; 3.0 mg/kg; iv; Female; F344
[28] = test system: Rat; experiment: concentration in plasma after dosing; settings: 5 min; dosed: alpha/beta-Thujone mixture; 50 mg/kg; oral; Male; F344; remark: listed apart in the source
[29] = test system: Rat; experiment: concentration in plasma after dosing; settings: 10 min; dosed: alpha/beta-Thujone mixture; 25 mg/kg; oral; Male; F344
[30] = test system: Rat; experiment: concentration in brain after dosing; settings: 10 min; dosed: 76231-76-0; 3.0 mg/kg; iv; Male; F344
[31] = test system: Rat; experiment: concentration in brain after dosing; settings: 0.5 h; dosed: alpha/beta-Thujone mixture; 25 mg/kg; oral; Male; F344
[32] = test system: mouse; experiment: concentration in blood after dosing; negative times count back from the end of exposure; settings: dosed: tert-amyl methyl ether, inhalation, duration: 6 hr, female, CD-1 (Charles River)
How it was run: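 Data points giving concentration or amount against time came from published in vivo toxicokinetic studies and from two structured collections. PubMed searching, classifier screening and manual review located the studies. Most points were digitised from plot screenshots using WebPlotDigitizer, the rest were copied from tables, and all keep their reported units.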

Clc1ccc(-c2cc(Cl)c(Cl)c(Cl)c2)cc1Cl [3,3',4,4',5-pentachlorobiphenyl]
Settings | concentration in liver [pg/g] | concentration in plasma [ng/mL]
[1] | 14400 | –
[2] | – | 0.0359
[3] | 1880 | –
[4] | 1140 | –
[5] | 4080 | –
[6] | 6060 | –
[7] | 11500 | –
[8] | 2630 | –
[9] | 1340 | –
[10] | 1220 | –
[11] | 3590 | –
[12] | 858 | –

CC(C)[C@]12CC(=O)[C@H](C)[C@H]1C2 [alpha-Thujone]
Settings | concentration in brain [ng/g] | concentration in plasma [ng/mL]
[13] | – | 12.6
[14] | 711 | –
[15] | 330 | –
[16] | – | 247
[17] | – | 206
[18] | 255 | –
[19] | – | 475
[20] | – | 186
[21] | 136 | –
[22] | 191 | –
[23] | – | 350
[24] | – | 11.5
[25] | 911 | –
[26] | – | 1100
[27] | – | 634
[28] | – | 474
[29] | – | 121
[30] | 1700 | –
[31] | 511 | –

CCC(C)(C)OC [tertiary amyl methyl ether]
[32]
Settings | concentration in blood
0.1362 h, 100 ppm | 222 ng/mL and 355 ng/mL
0.1578 h, 100 ppm | 469 ng/mL
0.159 h, 500 ppm | 4840 ng/mL and 3010 ng/mL and 3920 ng/mL
0.5048 h, 100 ppm | 87.8 ng/mL
0.5231 h, 500 ppm | 3610 ng/mL and 2390 ng/mL and 3000 ng/mL
0.5264 h, 100 ppm | 250 ng/mL
0.9818 h, 100 ppm | 116 ng/mL and 249 ng/mL
1.871 h, 100 ppm | 95.8 ng/mL
1.932 h, 2500 ppm | 3240 ng/mL
1.933 h, 2500 ppm | 288 ng/mL
1.979 h, 500 ppm | 37.1 ng/mL
4.082 h, 100 ppm | 83.7 ng/mL
4.103 h, 500 ppm | 19.8 ng/mL
9.872 h, 100 ppm | 77.1 ng/mL
9.928 h, 500 ppm | 74.2 ng/mL
10.02 h, 2500 ppm | 995 ng/mL
17.83 h, 100 ppm | 77.6 ng/mL
17.89 h, 2500 ppm | 1280 ng/mL
17.94 h, 500 ppm | 111 ng/mL

concentration in blood, [32], during exposure
Settings | -6 h | -5.788 h | -5.653 h | -5.454 h | -4.135 h | -4.089 h | -2.075 h | -2.032 h | -0.2107 h
100 ppm | 905 ng/mL | – | 1360 ng/mL | – | 1280 ng/mL and 1580 ng/mL and 1810 ng/mL | – | 2490 ng/mL and 2030 ng/mL and 910 ng/mL | 1350 ng/mL | 1700 ng/mL and 1570 ng/mL and 1500 ng/mL
500 ppm | – | 8660 ng/mL | – | 7230 ng/mL | – | 14100 ng/mL and 11900 ng/mL and 8850 ng/mL | – | – | –
